Assay results published in patent US20090202429A1 (TRUSTEES OF COLUMBIA UNIVERSITY IN THE CITY OF NEW YORK, published 2009).

T1: murine platelet glycoprotein Ib alpha (GPIb alpha), on mouse platelets (mouse, UniProt O35930 17-734)
T1 construct: whole, on cells; also called murine GPIb alpha; murine platelets
T1 sequence (looked up): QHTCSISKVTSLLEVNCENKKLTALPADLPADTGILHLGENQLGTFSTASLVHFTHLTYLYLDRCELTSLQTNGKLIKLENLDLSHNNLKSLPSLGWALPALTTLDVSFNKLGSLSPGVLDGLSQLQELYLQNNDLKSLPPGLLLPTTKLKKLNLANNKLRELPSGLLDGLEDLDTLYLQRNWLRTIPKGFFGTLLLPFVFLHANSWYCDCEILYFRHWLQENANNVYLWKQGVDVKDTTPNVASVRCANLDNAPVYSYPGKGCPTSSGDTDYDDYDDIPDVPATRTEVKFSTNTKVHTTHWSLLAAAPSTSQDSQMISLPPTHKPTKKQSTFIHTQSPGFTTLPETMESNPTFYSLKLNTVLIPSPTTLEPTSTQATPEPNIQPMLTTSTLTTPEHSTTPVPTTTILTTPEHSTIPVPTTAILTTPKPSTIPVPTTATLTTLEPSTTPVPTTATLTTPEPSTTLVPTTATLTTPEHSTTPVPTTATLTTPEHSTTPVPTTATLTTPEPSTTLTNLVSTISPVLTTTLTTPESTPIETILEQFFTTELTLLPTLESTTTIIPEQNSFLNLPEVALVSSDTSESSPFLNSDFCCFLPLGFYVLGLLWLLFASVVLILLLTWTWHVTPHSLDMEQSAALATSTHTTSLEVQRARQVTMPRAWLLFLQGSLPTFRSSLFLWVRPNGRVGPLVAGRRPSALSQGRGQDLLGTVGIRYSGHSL

B1: recombinant human VWF-A1 protein, wild type (amino acid […], made in bacteria, His tag) (ligand)
chain: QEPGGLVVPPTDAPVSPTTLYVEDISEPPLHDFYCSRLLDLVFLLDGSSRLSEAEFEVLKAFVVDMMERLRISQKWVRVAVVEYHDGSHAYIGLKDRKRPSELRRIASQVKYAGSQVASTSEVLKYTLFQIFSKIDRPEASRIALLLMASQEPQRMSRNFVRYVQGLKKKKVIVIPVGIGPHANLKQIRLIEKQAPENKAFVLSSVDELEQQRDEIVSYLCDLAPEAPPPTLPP
modifications: single intra-chain disulfide bond between residues 1272 and 1458
notes: also called H VWF-A1; WT human VWF-A1; not shown: amino-terminal vector-derived tag with 6x histidine (10 amino acids from pQE9, told for the murine construct)
B2: recombinant human VWF-A1 protein with 1326H>R (ligand)
chain: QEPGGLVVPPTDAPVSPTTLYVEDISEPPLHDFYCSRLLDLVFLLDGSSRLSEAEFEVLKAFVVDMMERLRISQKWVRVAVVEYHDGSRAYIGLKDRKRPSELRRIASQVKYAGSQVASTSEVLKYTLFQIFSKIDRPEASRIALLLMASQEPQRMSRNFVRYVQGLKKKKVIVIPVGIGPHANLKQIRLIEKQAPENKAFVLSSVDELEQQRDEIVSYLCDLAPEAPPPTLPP
notes: also called His1326Arg; not shown: amino-terminal vector-derived tag with 6x histidine
B3: recombinant human VWF-A1 protein with the type 2B mutation Ile1309Val (1309I>V) (ligand)
chain: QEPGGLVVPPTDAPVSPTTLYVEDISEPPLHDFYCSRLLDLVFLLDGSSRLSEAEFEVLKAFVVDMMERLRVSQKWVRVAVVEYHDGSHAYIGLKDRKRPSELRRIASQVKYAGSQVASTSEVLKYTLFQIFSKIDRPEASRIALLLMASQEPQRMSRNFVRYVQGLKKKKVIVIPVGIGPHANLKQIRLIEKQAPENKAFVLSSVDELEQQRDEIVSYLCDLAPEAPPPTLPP
notes: also called type 2B mutation alone; not shown: amino-terminal vector-derived tag with 6x histidine
B4: human platelet glycoprotein Ib alpha (GPIb alpha), on human platelets (receptor)
chain: not shown
notes: whole, on cells; also called GPIbα; human GPIb alpha

Columns and labels:
[1] = biological target: B4; test: panel A: coated beads on surface-immobilized human platelets in flow, ln of bead tethering events against time; shear stress 0.5 dyn cm-2; R2 0.94
Protocol: The cellular off-rates are determined by plotting the natural log of the number of VWF-A1 coated microspheres that interacted as a function of time after the initiation of tethering, the slope of the line=−koff (s⁻¹) which is the inverse of the bond lifetime. The force acting on the tether bond was calculated from force balance equations as stated above and koff plotted as a function of these forces.
The use of beads with one uniform size and shape permits determination of the relationship between wall shear stress and the force directly acting on the GPIb alpha-VWF-A1 tether bond (Fb), a parameter difficult to estimate for discoid-shaped objects such as platelets. […] This antibody was made by immunizing Fischer 344 rats (3-4 months old) with recombinant WT protein. […] Spleens from animals with the highest antibody titers were harvested and splenocytes fused with Sp2/0 mouse myeloma cells (54).

[2] = biological target: B4; test: panel C: VWF-A1 coated beads on surface-immobilized human platelets in flow, ln of tethering events against interaction time; WSS 0.5 dyn cm-2; R2 0.98
Protocol: (§1) The duration of these interactions are measured by recording images from a Nikon X60 DIC objective (oil immersion) viewed at a frame rate of 235 fps (Speed Vision Technologies, San Diego, Calif.) and subjected to wall shear stresses (WSS) ranging from 0.5 to 3.0 dyn cm⁻². The cellular off-rates are determined by plotting the natural log of the number of VWF-A1 coated microspheres that interacted as a function of time after the initiation of tethering, the slope of the line=−koff (s⁻¹) which is the inverse of the bond lifetime. The force acting on the tether bond was calculated from force balance equations as stated above and koff plotted as a function of these forces.

[3] = biological target: B4; test: panel C: VWF-A1 coated beads on surface-immobilized human platelets in flow, ln of tethering events against interaction time; WSS 1.5 dyn cm-2; R2 0.96
Protocol: as §1

[4] = biological target: B4; test: panel D: VWF-A1 coated beads on immobilized platelets labelled 'unfixed' (metabolically inactivated), WSS 1.5 dyn cm-2; R2 0.98
Protocol: as §1

[5] = biological target: B4; test: panel A: coated beads on surface-immobilized human platelets in flow, ln of bead tethering events against time; shear stress 2.0 dyn cm-2; R2 0.95
Protocol: as §1

[6] = biological target: B4; test: panel A: coated beads on surface-immobilized human platelets in flow, ln of bead tethering events against time; shear stress 3.0 dyn cm-2; R2 0.97
Protocol: as §1

[7] = biological target: B4; test: panel C: VWF-A1 coated beads on surface-immobilized human platelets in flow, ln of tethering events against interaction time; WSS 1.0 dyn cm-2; R2 0.97
Protocol: as §1

[8] = biological target: B4; test: panel D: VWF-A1 coated beads on immobilized platelets labelled 'fixed' (paraformaldehyde), WSS 1.5 dyn cm-2; R2 0.98
Protocol: as §1

[9] = biological target: T1, murine platelet glycoprotein Ib alpha …; test: murine platelets perfused over coated mutant VWF-A1, wall shear rate 800 s-1; the sheet states that H563R corresponds to H1326R
[10] = biological target: B4; test: human VWF-A1 coated beads on surface-immobilized human platelets, ln of bead tethering events against time; wall shear stress 1 dyn cm-2; R2 0.97
Protocol: as §1

[11] = biological target: T2, human plasma VWF (purified from or captured out of human plasma) (human, UniProt P04275 764-2813); test: panel B: human platelets on surface-immobilized plasma VWF in flow, 1600 s-1
T2 construct: Plasma-derived multimeric VWF; also called human VWF; native human plasma VWF

Binder: B1
koff [1]: 5.1 s⁻¹
koff [2]: 4.92 s⁻¹
koff [3]: 7.35 s⁻¹
koff [4]: 7.48 s⁻¹
koff [5]: 8.1 s⁻¹
koff [6]: 9.6 s⁻¹
koff [7]: 6.54 s⁻¹
koff [8]: 7.79 s⁻¹

Binder: B2
binding result [9]: binds

Binder: B3
koff [10]: 0.98 s⁻¹

Binder: B4
binding result [11]: binds
